Assay results from the supplement of paper PMC3334620.
Whole data set: some 33,000 sequences, median “E-score (-0.5 to 0.5)” near -0.053, cut for the highest 2% near 0.37. The list shows a part of the results.

biological target: Hap1 (UniProt P0CE41); assay: PBM E-score (8-mer binding enrichment) (E-score (-0.5 to 0.5)); higher = stronger / more preferred TF binding; most listed sequences are background and not binding sites; conditions: protein concentration: 200 nM; construct: GST-DNA-binding domain
Chain of UniProt P0CE41 (P0CE41 whole entry, the tested form may be a part): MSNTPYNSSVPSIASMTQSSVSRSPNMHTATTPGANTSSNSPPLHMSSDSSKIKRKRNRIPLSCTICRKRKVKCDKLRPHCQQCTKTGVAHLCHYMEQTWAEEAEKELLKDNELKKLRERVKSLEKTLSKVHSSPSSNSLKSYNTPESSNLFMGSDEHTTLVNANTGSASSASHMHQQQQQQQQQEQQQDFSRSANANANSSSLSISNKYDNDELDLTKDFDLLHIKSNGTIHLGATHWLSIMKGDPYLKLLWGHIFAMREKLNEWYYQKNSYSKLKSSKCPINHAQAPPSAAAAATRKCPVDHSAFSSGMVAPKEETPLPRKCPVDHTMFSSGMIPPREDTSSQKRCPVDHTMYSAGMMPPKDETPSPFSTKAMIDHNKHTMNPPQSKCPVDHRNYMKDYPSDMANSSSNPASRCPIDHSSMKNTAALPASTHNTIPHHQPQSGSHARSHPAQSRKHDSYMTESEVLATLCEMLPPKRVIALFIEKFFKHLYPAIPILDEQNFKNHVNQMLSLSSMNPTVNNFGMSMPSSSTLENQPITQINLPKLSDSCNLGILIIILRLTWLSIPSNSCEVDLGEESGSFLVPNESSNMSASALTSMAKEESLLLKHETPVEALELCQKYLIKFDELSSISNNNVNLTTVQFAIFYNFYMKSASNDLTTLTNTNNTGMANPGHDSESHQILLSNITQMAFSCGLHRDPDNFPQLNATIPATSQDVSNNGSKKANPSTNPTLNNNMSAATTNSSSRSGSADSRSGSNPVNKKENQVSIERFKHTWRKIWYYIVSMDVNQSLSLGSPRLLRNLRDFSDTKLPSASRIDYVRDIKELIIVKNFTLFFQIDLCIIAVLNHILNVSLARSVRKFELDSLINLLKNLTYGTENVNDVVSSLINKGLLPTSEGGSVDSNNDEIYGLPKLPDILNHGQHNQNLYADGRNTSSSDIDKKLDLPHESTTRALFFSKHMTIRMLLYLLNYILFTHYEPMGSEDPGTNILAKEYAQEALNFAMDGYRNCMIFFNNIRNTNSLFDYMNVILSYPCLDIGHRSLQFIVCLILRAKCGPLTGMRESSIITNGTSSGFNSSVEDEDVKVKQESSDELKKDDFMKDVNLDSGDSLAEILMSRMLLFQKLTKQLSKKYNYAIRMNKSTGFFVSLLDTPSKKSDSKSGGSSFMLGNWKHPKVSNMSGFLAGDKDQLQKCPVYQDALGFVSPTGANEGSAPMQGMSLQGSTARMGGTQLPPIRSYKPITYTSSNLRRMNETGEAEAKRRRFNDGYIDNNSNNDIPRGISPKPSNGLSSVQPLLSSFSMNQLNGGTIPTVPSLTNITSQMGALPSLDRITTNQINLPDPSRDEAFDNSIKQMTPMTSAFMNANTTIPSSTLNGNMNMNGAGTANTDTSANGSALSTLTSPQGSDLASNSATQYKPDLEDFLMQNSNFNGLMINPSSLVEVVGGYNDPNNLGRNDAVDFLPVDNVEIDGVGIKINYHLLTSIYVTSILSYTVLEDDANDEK
How it was run: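 Detection of bound protein used fluorescent anti-GST, with scans normalised by masliner. The proteins were GST-tagged yeast transcription factors applied at about 100-200 nM to universal all-10-mer Agilent arrays made double-stranded by primer extension. Each ungapped eight-base word, pooled with its reverse complement, was scored with an E-score from the Universal PBM Analysis Suite.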

Sequence	PBM E-score
TGCTTGAA	-0.0898
GAACGCCA	-0.0158
GAGGTTCC	0.0516
CCTCTTGC	-0.064
CTGAGGTC	-0.295
CAAGTGAC	-0.162
CTGGGTTA	-0.0941
CTATACCA	-0.246
CGAGTCAG	-0.0635
AGTAGTAT	0.00074
GGACGTAC	0.0978
AACTTGAT	-0.137
CACTCCAG	-0.144
ACAGCAGC	-0.127
CAGCTGAG	-0.27
CGCCAATA	0.0636
ACTTACCT	-0.0187
CGACGGCG	0.173
AATGCCTA	0.0479
GAAGTAAA	0.0731
CTAGGCGC	-0.198
AGTGAGAC	-0.208
TCATGGGA	-0.285
TGAATCCA	-0.111

Sequence	PBM E-score
CTGAACCA	-0.2
AACGACAT	-0.16
AAAAAGTC	0.146
CAACGAGC	-0.111
GTCCAAAA	0.119
AATCGTGC	0.126
CTTTCAGA	-0.0911
AAGGCTGC	-0.1
TGCAGACA	-0.233
GACCATGA	0.0326
CTAGTCGA	-0.103
ACCAGACA	-0.183
CATTATCC	0.11
CACGGTAC	0.0688
GCGTTCTA	0.056
AAAGATGG	-0.166
GAAGTATA	0.121
GAGCATGA	-0.228
CCTGCACC	-0.0519
CGGTCTAA	0.178
CGGGCGTA	0.395
ACTAAGTG	-0.102
TCTTGACA	-0.233
GAGGAGCA	-0.00845

Sequence	PBM E-score
ATCGTTTC	-0.0452
GCAAAGCC	-0.0393
AAAACTAG	-0.116
CCAGAACA	-0.139
GGTCCGGA	0.44
CGATGTTC	0.145
CTATACAA	-0.157
TAATAATA	-0.024
ATTGGTGC	0.0244
GCGGCGCA	0.119
GAACAAGA	0.0382
GTTCTGAA	-0.271
CGGAGCGC	0.258
TAGGCTCA	-0.319
CAGCACCA	-0.124
CAGATCCG	0.322
AAATAGCC	0.093
CACAACTG	-0.32
GGCAGCAC	-0.133
CTTGGAAC	-0.129
AATCCGCC	0.261
AAATGCTT	0.0946
CCGATCGG	0.402
CTCCATGC	-0.237

Sequence	PBM E-score
ACGTTAGT	-0.0823
CCCCTTCA	-0.281
ACGGATGA	0.228
TCAGCACA	-0.218
ATCCAGAT	-0.0723
GTTCGGAA	0.312
GGCTAGGA	-0.272
AGTGGCGC	0.0613
GCGTACCA	-0.301
GGCAGACC	-0.11
AGGGTGTG	-0.105
GAGTCGGC	0.188
CGTCAGAA	-0.181
CTCTTTCA	-0.216
ACCTTCGT	-0.173
AACCTGGT	-0.034
ACTAGCCT	-0.034
ACCAGGAA	-0.0154
ACACCCCT	-0.104
CAATCTGA	-0.151
CTTTGTCC	0.19
CAGCTCAC	-0.128
